# From PubChem BioAssay (NCI)
# The source holds several records for some structures; these can differ, active in one and inactive in another.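 Interpretation: 100, growth as untreated; towards 0, rising growth inhibition; 0, no net growth; 0 to -100, cell death. Compounds scoring below 10 were considered active.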 The source holds more than one record for some entries. Only these are listed. The source may hold further records. The screen tested this drug many times, at the concentration stated with the values; one value stands for one run. Brackets with × stand for listed records that agree.
# System: RXF 393 renal
# Experiment: NCI-60 one-dose screen, 48 h (100 = growth as untreated, 0 = no growth, -100 = all killed)
smiles,measurement,setting,value
COc1cccc2c1C(=O)c1c(O)c3c(c(O)c1C2=O)C[C@@](O)(C(=O)CO)C[C@@H]3OC1CC(N)C(O)C(C)O1 (stereo not given in full),growth,"0.25 µM, runs of 2015","inactive: 67.2, 58.1, 59.5, 52.3, 63.1, 62.4, 54.6, 55.1, 45.5 (2×), 60.5 (2×), 59.6, 60.6, 75.6, 74.5, 67.4 (2×), 54.3, 54.7, 57.4, 61.4 (2×), 64.2 (2×), 73.1, 65.6, 63.8, 64.4, 57.7, 57, 49, 55.8, 39.6, 50.8 (2×), 53.9, 39, 44.1, 40.7, 38.2, 47.9, 45.4, 54.2, 54.8, 64.8, 65.4, 66.8, 79.4, 57.2, 68.3, 40.6, 46.9, 69.2, 30.9, 37.8, 48.4, 20.8, 46.1, 27.1, 44, 51.8, 39.1, 53.4, 61.7, 65.2, 76.2, 81.5, 63.9, 55.9, 66.6, 68.5, 45.6, 53.2, 76.9, 82, 70.9, 67.3, 52.7, 64.9%"
same,growth,"0.25 µM, runs of 2016","inactive: 49.2, 49.7, 28.1, 24.9, 59.2, 49.5, 52.8, 51.5, 50.5, 53.6, 68.2, 77.4, 78.5, 66.2, 70.2, 62.1, 69.3, 71.5, 50.3, 56.7, 63.1, 58.8 (2×), 71.6, 64.8, 50.2, 47.8, 39.8, 42.3, 45, 27, 35.5, 43.4, 41.6, 56, 49.4, 68.6, 72.3, 57.9, 70.6, 65.2, 74.7, 80.6, 79.5, 74, 71.4, 68.8 (2×), 70.7 (2×), 60.9, 57.1, 63.3 (2×), 56.2, 64.2, 69.2, 62.6, 67.9, 75.1, 54.9, 67.4, 63.7 (2×), 65.4, 65.8, 71.7, 69.7, 73.9, 67.6, 81.6, 88.5, 69.1, 60.5, 67.5, 62.2, 67.2, 63.2, 61.4, 78.4, 78.7, 60.8, 64%"
same,growth,"0.25 µM, runs of 2017","inactive: 55.2, 65, 47.6, 47.5 (2×), 67.2, 37.7, 46.3, 45.7, 54.7 (2×), 49, 33.6, 67.1, 60.4, 39.8, 44.3, 36.9, 39, 39.9, 42.3, 37.6, 45.9, 50.4, 53.3, 72.2, 53, 62.8, 58.4 (2×), 49.2 (2×), 46.6, 46.7, 55, 51.4, 55.1, 54.6, 57 (2×), 54.3, 57.1 (2×), 58.9 (2×), 56, 61.3, 54, 61.9, 66.2, 70.9, 65.3, 60.6, 55.3, 50.3, 52.9, 59.4, 45.8, 47.4, 47.3, 56.8 (2×), 54.9, 59.9, 58.1, 52, 57.5, 56.1 (2×), 61.8, 54.5, 56.3, 46, 51.7, 61.4, 65.5, 59.8, 46.9, 53.2, 53.8, 55.4, 44.5%"
same,growth,"0.25 µM, runs of 2018","inactive: 49.6, 51.5, 37.7, 35.5, 40.2, 46.6, 50.2, 42.5, 50.8, 59, 61.1, 61.7, 67.9, 55.7, 61, 56.8, 45.7, 52.1, 38.9, 28.3, 32.7, 56.7, 55 (2×), 55.2, 57.4, 60.3, 49, 53.9, 56.3, 37.8, 43.3, 39.3, 28.7, 17.9, 42.1, 33.5, 36.4, 48.5, 54.3, 48.1, 62.6, 46.4, 58.1, 58.6, 54.7, 63.8, 58.8, 18.8, 24.2%"
same,growth,"0.25 µM, runs of 2019","inactive: 10.2, 18.2, 16.4, 46.7, 51.7, 52.7, 42.7, 48.1, 52.5, 47.7, 50.5, 34.9, 37.6 (2×), 35, 21.4, 20.7, 37.5, 26.7, 14.4, 37, 39.9, 44.5, 40.7, 52.4, 56.7, 60.9, 62.8, 60.3, 47.6, 43.3, 23.6, 31.7, 32.6, 34.4, 20.9, 22.4, 21.6, 15.2, 44.4, 51.2, 56, 57.5, 51.3, 55.9, 32.4, 32.5, 20.8% and active: 9.79%"
same,growth,"0.25 µM, runs of 2020","inactive: 42, 43.8, 67.7, 62, 60.6, 60.4, 58.2, 61.7 (2×), 38.3, 62.1, 29.5, 34.6, 30.9, 33.7, 28.5, 55, 33.6, 34.5, 53.8, 55.8, 62.2, 67, 56.3, 59.9, 61.9, 67.1%"
same,growth,"0.25 µM, runs of 2021","inactive: 10.2, 15.9, 11.2, 29, 12.5, 40.8, 42.7, 34.9, 31.8, 27.6, 26.2, 28.5, 27.7, 22.4, 32.4, 45, 32.5, 43, 53.8, 37.5 (2×), 43.1, 44.2, 45.5, 51.4, 39.2, 34.2, 42.6, 40.3 (2×), 45.9, 42.8, 40.7, 41.7, 42.3, 46.8, 25.9, 48.5, 29.2, 33.6, 54.6, 27.2, 22.2, 43.5, 42.4% and active: -5.44, 9.18, 9.07, -8.14, 4.51, -5.43, 2.08, 9.06%"
same,growth,"0.25 µM, runs of 2022","active: -18.8%, -16%, 7.32% and inactive: 56.8, 64.6, 69.2, 48.7, 76.2 (2×), 95.6, 115, 53.3, 29.3 (2×), 23.4, 22.8, 82.4, 39, 56.9, 67.7, 91.6, 38.2, 39.7, 25.8, 11.3%"
same,growth,"25 µM, runs of 1991","active: -82.2, -78.1, -98.1, -85.4, -96.9, -86.9, -66.6, -98.8, -88.1, -84.2 (2×), -71.6, -91.9, -74.9, -69.2, -91.7, -92.8, -62.5, -59%"
same,growth,"25 µM, runs of 1992","active: -89, -73.1, -87.3, -90.5 (2×), -71.5, -96.1, -86.1, -76.3 (2×), -83.2, -80.7, -84.8, -89.9 (2×), -82.4 (2×), -52.3, -96.8 (2×), -88.1, -78.3, -69.4, -72.8, -86.2, -85.2, -86.8 (2×), -92.2 (3×), -84.2, -80.5, -85.7 (2×), -76.6, -58.7, -87.8 (2×), -91.3, -77.7, -86.4, -76.2, -84.5, -93.3, -89.1, -88.8, -80.3, -89.4, -70.7, -85.1, -69.8, -77, -94.1, -99.4, -92.6, -88.5, -83.9, -69.9, -88, -91, -74.7, -90.4, -91.7 (2×), -86.3 (2×), -73.7, -85, -97.7, -92 (3×), -90, -94.5, -83.4, -83, -84.4, -75, -62.7, -90.1, -96.2, -94.7 (2×), -91.9, -78.7, -83.7, -67.1, -74.2, -85.5, -81.5, -87.5, -44.8, -89.5% and inactive: 11.8%"
same,growth,"25 µM, runs of 1993","active: -40.5, -26.8, -82.6, -76.8, -93.8, -28.3, -75.8 (2×), -68.3, -94.3, -96.9, -90.1, -86, -92.9, -78.7, -63.5, -77.3, -57.6, -85.5, -81.1, -93.3, -64.3, -83.3, -77.4, -73.1, -78.8, -77.6, -68.1, -72.3, -76.9, -92, -100, -81.4, -92.2, -90.8, -81, -56.1, -66.4, -62, -42.8, -84.3, -73.6, -48.4, -84.9%"
same,growth,"25 µM, runs of 1994","active: -93.1, -97.7, -85.4, -29.3, -81.4, -88.7, -74.6, -70.7, -97, -74.8, -57, -93.6, -60.1, -87.6, -79.4, -83.8, -77.9, -75, -91.8, -81.5, -38.1, -87.9, -42.6, -78.3, -69.7, -42.2%"
same,growth,"25 µM, runs of 1995","active: -61.1, -83.6, -93.9 (2×), -54.1, -83.3, -56.8, -78.8, -64.7, -88.2, -55.6, -89.9, -32.6, -42.7, -79.1, -28.7, -91.7, -71.9 (2×), -88.9, -76.8, -57.3, -70.4, -60.2, -64.1, -25, -41.9, -75.7, -89.6, -78.6, -59.5, -65.2, -77, -66.6, -58.2%"
same,growth,"25 µM, runs of 1996","active: -46.4, -52, -79.1, -82.3, -77.9, -62.7 (2×), -61.7, -93.3, -73.5, -88.9, -69.6, -95.3, -80.9, -84.8, -89.6, -73.6, -86.7, -64.6, -65.7, -87.6, -86.2, -92.6, -85.9, -84.7, -71.5, -86.9, -80.8, -76.1, -81.6, -72.1, -81.8, -28.6, -78, -55.2, -71.2, -70.5, -70.9, -78.7, -93.1, -8.06, -62.1, -79.3, -72.9, -64.2, -82.7, -69.2, -82.9, -66.5, -83.3, -73.3, -79.7% and inactive: 123%, 56.2%"
same,growth,"25 µM, runs of 1997","active: -67.8 (2×), -68.2, -91, -55.6, -77.1, -52.1, -46, -33.2, -61.9, -50.5, -85.1, -74.7, -90.9, -90.6, -93.6, -70.9, -83.9, -78.3, -83.8, -78, -76.3, -75.4, -73.3, -43.1, -52.4, -55.8, -64.7, -63.4, -77.5, -80.2, -87.4, -62.8, -90, -74.3, -51.7, -75.7, -85.3, -52.6%"
